According to the supplement of paper PMC4967469:
IC50 is the fitted dose that halves viability relative to control wells, and lower means more sensitive; a fit beyond the top or the lowest dose is shown as a bound at that dose. AUC sums up the same curve from the lowest dose to the 256-fold higher top dose; values near 1 show little effect. For some of these results: An inferred top dose is not printed in the source and was worked back from the curve model. For some of these results: Drugs with an entry number were screened twice under separate entries, and the two screens often disagree.

How the values were obtained:
Assay in all cases: Viability of human cancer cell lines after 72 h of drug (GDSC screen)
Nilotinib = compound: Cc1cn(-c2cc(NC(=O)c3ccc(C)c(Nc4nccc(-c5cccnc5)n4)c3)cc(C(F)(F)F)c2)cn1 [Nilotinib]; details: top dose 2 µM
Description: (§1)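 Human cancer cell lines in 384-well plates, medium with 10% serum, drug for 72 h over a 256-fold dose range (nine 2-fold or five 4-fold steps up to the top dose). Adherent lines were fixed and stained with the nucleic acid dye Syto60, suspension lines read with resazurin; signal relative to control wells, capped at 0 and 100%. One two-parameter sigmoid per drug and line, fitted in a mixed model over all curves with the slope shared within a line.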

TW-37 = compound: CC(C)c1ccccc1Cc1cc(C(=O)Nc2ccc(S(=O)(=O)c3ccccc3C(C)(C)C)cc2)c(O)c(O)c1O [TW-37]; details: top dose 5 µM
Description: as §1

Bicalutamide = compound: CC(O)(CS(=O)(=O)c1ccc(F)cc1)C(=O)Nc1ccc(C#N)c(C(F)(F)F)c1 [Bicalutamide]; details: top dose inferred
Description: as §1

LFM-A13 = compound: C/C(O)=C(\C#N)C(=O)Nc1cc(Br)ccc1Br [LFM-A13]; details: top dose 16 µM; top dose inferred
Description: as §1

Gemcitabine = compound: Nc1ccn([C@@H]2O[C@H](CO)[C@@H](O)C2(F)F)c(=O)n1 [Gemcitabine]; details: top dose 1.024 µM
Description: as §1

MP470 = compound: S=C(NCc1ccc2c(c1)OCO2)N1CCN(c2ncnc3c2oc2ccccc23)CC1 [MP470]; details: top dose 20 µM; top dose inferred
Description: as §1

KIN001-270 = compound: Cc1ccc(Nc2cc(-c3cccc(N4C(=O)c5ccccc5C4=O)c3)ncn2)cc1NS(C)(=O)=O [KIN001-270]; details: top dose 20 µM; top dose inferred
Description: as §1

AUY922 = compound: CCNC(=O)c1noc(-c2cc(C(C)C)c(O)cc2O)c1-c1ccc(CN2CCOCC2)cc1 [AUY922]; details: top dose 0.256 µM; top dose inferred
Description: as §1

T0901317 = compound: O=S(=O)(c1ccccc1)N(CC(F)(F)F)c1ccc(C(O)(C(F)(F)F)C(F)(F)F)cc1 [T0901317]; details: top dose 10.24 µM; top dose inferred
Description: as §1

[1] = top dose 1.024 µM, screen: GDSC drug entry 150
[2] = top dose 10 µM, screen: GDSC drug entry 1502

Cell Line | AUC (Nilotinib) | IC50 (Nilotinib) [µM] | AUC (TW-37) | IC50 (TW-37) [µM] | AUC (Bicalutamide; [1]) | IC50 (Bicalutamide; [1]) [µM] | AUC (Bicalutamide; [2]) | IC50 (Bicalutamide; [2]) [µM] | AUC (LFM-A13) | IC50 (LFM-A13) [µM] | AUC (Gemcitabine) | IC50 (Gemcitabine) [µM] | AUC (MP470) | IC50 (MP470) [µM] | AUC (KIN001-270) | IC50 (KIN001-270) [µM] | AUC (AUY922) | IC50 (AUY922) [µM] | AUC (T0901317) | IC50 (T0901317) [µM]
CAL-27 (head and neck, adherent) | 0.955 | > 2 | 0.395 | 0.16 | 0.986 | > 1.02 | 0.939 | > 10 | 0.976 | > 16 | 0.25 | 0.012 | 0.899 | > 20 | 0.979 | > 20 | 0.57 | 0.025 | 0.97 | > 10.2
CAL-29 (bladder, adherent) | 0.983 | > 2 | 0.488 | 0.289 | 0.984 | > 1.02 | 0.979 | > 10 | 0.955 | > 16 | 0.3 | 0.0167 | 0.975 | > 20 | 0.981 | > 20 | 0.98 | > 0.256 | 0.983 | > 10.2
CAL-33 (head and neck, adherent) | 0.922 | > 2 | 0.668 | 0.92 | 0.985 | > 1.02 | – | – | 0.971 | > 16 | 0.171 | 0.00641 | 0.922 | > 20 | 0.979 | > 20 | 0.552 | 0.0221 | 0.975 | > 10.2
CAL-39 (cervix, adherent) | 0.977 | > 2 | 0.539 | 0.401 | 0.984 | > 1.02 | 0.983 | > 10 | 0.984 | > 16 | 0.957 | > 1.02 | 0.964 | > 20 | 0.975 | > 20 | 0.426 | 0.00998 | 0.985 | > 10.2
CAL-51 (breast, adherent) | 0.984 | > 2 | 0.482 | 0.28 | 0.99 | > 1.02 | 0.976 | > 10 | 0.99 | > 16 | 0.697 | 0.209 | 0.94 | > 20 | 0.99 | > 20 | 0.364 | 0.00714 | 0.971 | > 10.2
CAL-62 (thyroid, adherent) | 0.935 | > 2 | 0.531 | 0.378 | 0.988 | > 1.02 | 0.985 | > 10 | 0.976 | > 16 | 0.147 | 0.00552 | 0.976 | > 20 | 0.985 | > 20 | 0.528 | 0.019 | 0.982 | > 10.2
CAL-78 (chondrosarcoma, adherent) | 0.986 | > 2 | 0.611 | 0.66 | 0.986 | > 1.02 | 0.982 | > 10 | 0.97 | > 16 | 0.986 | > 1.02 | 0.975 | > 20 | 0.986 | > 20 | 0.882 | > 0.256 | 0.986 | > 10.2
CAL-85-1 (breast, adherent) | 0.934 | > 2 | 0.73 | 1.73 | 0.979 | > 1.02 | 0.964 | > 10 | 0.941 | > 16 | 0.639 | 0.174 | 0.929 | > 20 | 0.951 | > 20 | 0.414 | 0.00871 | 0.966 | > 10.2
CAPAN-1 (pancreas, adherent) | 0.975 | > 2 | 0.908 | > 5 | 0.985 | > 1.02 | – | – | 0.959 | > 16 | 0.272 | 0.0132 | 0.933 | > 20 | 0.986 | > 20 | 0.744 | 0.0877 | 0.98 | > 10.2
CCK-81 (large intestine, adherent) | 0.99 | > 2 | 0.762 | 1.69 | 0.988 | > 1.02 | 0.984 | > 10 | 0.988 | > 16 | 0.858 | 0.762 | 0.915 | > 20 | 0.966 | > 20 | 0.824 | 0.141 | 0.98 | > 10.2
CFPAC-1 (pancreas, adherent) | 0.973 | > 2 | 0.603 | 0.626 | 0.975 | > 1.02 | 0.979 | > 10 | 0.952 | > 16 | 0.124 | < 0.004 | 0.977 | > 20 | 0.979 | > 20 | 0.499 | 0.0159 | 0.974 | > 10.2
CHL-1 (melanoma, adherent) | 0.988 | > 2 | 0.274 | 0.0744 | 0.987 | > 1.02 | 0.968 | > 10 | 0.987 | > 16 | 0.117 | 0.00412 | 0.935 | > 20 | 0.978 | > 20 | 0.555 | 0.0225 | 0.958 | > 10.2
CHP-212 (neuroblastoma, adherent) | 0.942 | > 2 | 0.719 | 1.23 | 0.988 | > 1.02 | – | – | 0.979 | > 16 | 0.152 | 0.00607 | 0.813 | 9.77 | 0.983 | > 20 | 0.566 | 0.0239 | 0.981 | > 10.2
CHSA0108 (chondrosarcoma, adherent) | 0.981 | > 2 | 0.573 | 0.51 | 0.983 | > 1.02 | 0.97 | > 10 | 0.976 | > 16 | 0.939 | > 1.02 | 0.85 | 19 | 0.984 | > 20 | 0.982 | > 0.256 | 0.968 | > 10.2
